# The supplement of paper PMC8728848
# Some of the results follow.
# Legend:
# Test in all cases: glycan array binding signal (z-score within array); higher = stronger binding
# Conditions in all cases: glycan notation: IUPAC condensed, linker removed
# Fuc(a1-2)Gal = target: Fuc(a1-2)Gal
# How it was run: (§1)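 The binding signal is a Z-score computed within each array and averaged over linkers. Arrays of the same protein sequence at different concentrations or buffers were also averaged together. Data originate from 3228 arrays in the Consortium for Functional Glycomics database, kept only where the protein sequence was available.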
# Fuc(a1-2)Gal(b1-3)GalNAc = target: Fuc(a1-2)Gal(b1-3)GalNAc
# How it was run: as §1
# [1] = target: Fuc(a1-2)Gal(b1-3)GalNAc(a1-3)[Fuc(a1-2)]Gal(b1-4)Glc
# How it was run: as §1
# [2] = target: Fuc(a1-2)Gal(b1-3)GalNAc(a1-3)[Fuc(a1-2)]Gal(b1-4)GlcNAc
# How it was run: as §1
# [3] = target: Fuc(a1-2)Gal(b1-3)GalNAc(b1-3)Gal
# How it was run: as §1
# [4] = target: Fuc(a1-2)Gal(b1-3)GalNAc(b1-3)Gal(a1-4)Gal(b1-4)Glc
# How it was run: as §1
# [5] = target: Fuc(a1-2)Gal(b1-3)GalNAc(b1-4)[Neu5Ac(a2-3)]Gal(b1-4)Glc
# How it was run: as §1
# Fuc(a1-2)Gal(b1-3)GlcNAc = target: Fuc(a1-2)Gal(b1-3)GlcNAc
# How it was run: as §1
# [6] = target: Fuc(a1-2)Gal(b1-3)GlcNAc(b1-2)Man(a1-3)[Fuc(a1-2)Gal(b1-3)GlcNAc(b1-2)Man(a1-6)]Man(b1-4)GlcNAc(b1-4)GlcNAc
# How it was run: as §1
# [7] = target: Fuc(a1-2)Gal(b1-3)GlcNAc(b1-2)Man(a1-3)[Fuc(a1-2)Gal(b1-3)GlcNAc(b1-2)Man(a1-6)]Man(b1-4)GlcNAc(b1-4)[Fuc(a1-6)]GlcNAc
# How it was run: as §1
# [8] = target: Fuc(a1-2)Gal(b1-3)GlcNAc(b1-3)Gal(b1-4)Glc
# How it was run: as §1
# [9] = target: Fuc(a1-2)Gal(b1-3)GlcNAc(b1-3)GalNAc
# How it was run: as §1
# [10] = target: Fuc(a1-2)Gal(b1-3)GlcNAc(b1-3)[Fuc(a1-2)Gal(b1-3)GlcNAc(b1-6)]GalNAc
# How it was run: as §1
# [11] = target: Fuc(a1-2)Gal(b1-3)GlcNAc(b1-3)[Gal(b1-4)GlcNAc(b1-6)]Gal(b1-4)Glc
# How it was run: as §1
# [12] = target: Fuc(a1-2)Gal(b1-3)GlcNAc(b1-3)[Neu5Ac(a2-6)Gal(b1-4)GlcNAc(b1-6)]Gal(b1-4)Glc
# How it was run: as §1
# [13] = target: Fuc(a1-2)Gal(b1-3)GlcNAc6S
# How it was run: as §1
# [14] = target: Fuc(a1-2)Gal(b1-3)[Fuc(a1-4)]GlcNAc
# How it was run: as §1
# [15] = target: Fuc(a1-2)Gal(b1-3)[Fuc(a1-4)]GlcNAc(b1-2)Man(a1-3)[Fuc(a1-2)Gal(b1-3)[Fuc(a1-4)]GlcNAc(b1-2)Man(a1-3)]Man(b1-4)GlcNAc(b1-4)GlcNAc
# How it was run: as §1
# [16] = target: Fuc(a1-2)Gal(b1-3)[Fuc(a1-4)]GlcNAc(b1-2)Man(a1-3)[Fuc(a1-2)Gal(b1-3)[Fuc(a1-4)]GlcNAc(b1-2)Man(a1-6)]Man(b1-4)GlcNAc(b1-4)[Fuc(a1-6)]GlcNAc(b1-4)[Fuc(a1-6)]GlcNAc
# How it was run: as §1
# [17] = target: Fuc(a1-2)Gal(b1-3)[Fuc(a1-4)]GlcNAc(b1-3)[Fuc(a1-3)[Gal(b1-4)]GlcNAc(b1-6)]Gal(b1-4)Glc
# How it was run: as §1
# [18] = target: Fuc(a1-2)Gal(b1-3)[Fuc(a1-4)]GlcNAc(b1-3)[Gal(b1-4)GlcNAc(b1-6)]Gal(b1-4)Glc
# How it was run: as §1
# [19] = target: Fuc(a1-2)Gal(b1-4)Fuc(a1-3)]GlcNAc(b1-2)Man(a1-3)[Fuc(a1-2)Gal(b1-4)[Fuc(a1-3)]GlcNAc(b1-2)Man(a1-6)]Man(b1-4)GlcNAc(b1-4)GlcNAc
# How it was run: as §1
# Fuc(a1-2)Gal(b1-4)Glc = target: Fuc(a1-2)Gal(b1-4)Glc
# How it was run: as §1
# Fuc(a1-2)Gal(b1-4)Glc6S = target: Fuc(a1-2)Gal(b1-4)Glc6S
# How it was run: as §1
# Fuc(a1-2)Gal(b1-4)GlcNAc = target: Fuc(a1-2)Gal(b1-4)GlcNAc
# How it was run: as §1
# [20] = target: Fuc(a1-2)Gal(b1-4)GlcNAc(b1-2)Man
# How it was run: as §1
# [21] = target: Fuc(a1-2)Gal(b1-4)GlcNAc(b1-2)Man(a1-3)[Fuc(a1-2)Gal(b1-4)GlcNAc(b1-2)Man(a1-6)]Man(b1-4)GlcNAc(b1-4)GlcNAc
# How it was run: as §1
# [22] = target: Fuc(a1-2)Gal(b1-4)GlcNAc(b1-2)Man(a1-3)[Fuc(a1-2)Gal(b1-4)GlcNAc(b1-2)Man(a1-6)]Man(b1-4)GlcNAc(b1-4)[Fuc(a1-6)]GlcNAc
# How it was run: as §1
# [23] = target: Fuc(a1-2)Gal(b1-4)GlcNAc(b1-2)[Fuc(a1-2)Gal(b1-4)GlcNAc(b1-4)]Man(a1-3)[Fuc(a1-2)Gal(b1-4)GlcNAc(b1-2)Man(a1-6)]Man(b1-4)GlcNAc(b1-4)GlcNAc
# How it was run: as §1
# [24] = target: Fuc(a1-2)Gal(b1-4)GlcNAc(b1-3)Gal(b1-4)GlcNAc
# How it was run: as §1
# [25] = target: Fuc(a1-2)Gal(b1-4)GlcNAc(b1-3)Gal(b1-4)GlcNAc(b1-2)Man(a1-3)[Fuc(a1-2)Gal(b1-4)GlcNAc(b1-3)Gal(b1-4)GlcNAc(b1-2)Man(a1-6)]Man(b1-4)GlcNAc(b1-4)GlcNAc
# How it was run: as §1
# [26] = target: Fuc(a1-2)Gal(b1-4)GlcNAc(b1-3)Gal(b1-4)GlcNAc(b1-3)Gal(b1-4)GlcNAc
# How it was run: as §1
# [27] = target: Fuc(a1-2)Gal(b1-4)GlcNAc(b1-3)GalNAc
# How it was run: as §1
# [28] = target: Fuc(a1-2)Gal(b1-4)GlcNAc(b1-3)[Fuc(a1-2)Gal(b1-4)GlcNAc(b1-6)]GalNAc
# How it was run: as §1
# [29] = target: Fuc(a1-2)Gal(b1-4)GlcNAc(b1-3)[Fuc(a1-3)[Gal(b1-4)]GlcNAc(b1-6)]Gal(b1-4)Glc
# How it was run: as §1
# [30] = target: Fuc(a1-2)Gal(b1-4)GlcNAc(b1-6)GalNAc
# How it was run: as §1
# [31] = target: Fuc(a1-2)Gal(b1-4)GlcNAc6S
# How it was run: as §1
# [32] = target: Fuc(a1-2)Gal(b1-4)[Fuc(a1-3)]GlcNAc
# How it was run: as §1
# [33] = target: Fuc(a1-2)Gal(b1-4)[Fuc(a1-3)]GlcNAc(b1-2)Man(a1-3)[Fuc(a1-2)Gal(b1-4)[Fuc(a1-3)]GlcNAc(b1-2)Man(a1-6)]Man(b1-4)GlcNAc(b1-4)[Fuc(a1-6)]GlcNAc
# How it was run: as §1
# [34] = target: Fuc(a1-2)Gal(b1-4)[Fuc(a1-3)]GlcNAc(b1-2)[Fuc(a1-2)Gal(b1-4)[Fuc(a1-3)]GlcNAc(b1-4)]Man(a1-3)[Fuc(a1-2)Gal(b1-4)[Fuc(a1-3)]GlcNAc(b1-2)Man(a1-6)]Man(b1-4)GlcNAc(b1-4)GlcNAc
# How it was run: as §1
# [35] = target: Fuc(a1-2)Gal(b1-4)[Fuc(a1-3)]GlcNAc(b1-3)Gal(b1-4)[Fuc(a1-3)]GlcNAc
# How it was run: as §1
# [36] = target: Fuc(a1-2)Gal(b1-4)[Fuc(a1-3)]GlcNAc(b1-3)Gal(b1-4)[Fuc(a1-3)]GlcNAc(b1-3)Gal(b1-4)[Fuc(a1-3)]GlcNAc
# How it was run: as §1
# [37] = target: Fuc(a1-2)Gal(b1-4)[Fuc(a1-3)]GlcNAc(b1-3)GalNAc
# How it was run: as §1
# [38] = target: Fuc(a1-2)Gal(b1-4)[Fuc(a1-3)]GlcNAc(b1-3)[Neu5Ac(a2-6)Gal(b1-4)GlcNAc(b1-6)]Gal(b1-4)Glc
# How it was run: as §1
# [39] = target: Fuc(a1-2)Gal3S(b1-4)GlcNAc
# How it was run: as §1
binder,measurement,setting,value
"CFEM-SCL (Saccharomyces cerevisiae), O13547 (protein) MRATTLLSSVVSLALLSKEVLATPPACLLACVAQVGKSSSTCDSLNQVTCYCEHENSAVKKCLDSICPNNDADAAYSAFKSSCSEQNASLGD",glycan array binding signal (z-score),Fuc(a1-2)Gal,-0.18
same,glycan array binding signal (z-score),Fuc(a1-2)Gal(b1-3)GalNAc,-0.187
same,glycan array binding signal (z-score),[1],-0.253
same,glycan array binding signal (z-score),[2],-0.236
same,glycan array binding signal (z-score),[3],0.142
same,glycan array binding signal (z-score),[4],-0.265
same,glycan array binding signal (z-score),[5],-0.065
same,glycan array binding signal (z-score),Fuc(a1-2)Gal(b1-3)GlcNAc,-0.274
same,glycan array binding signal (z-score),[6],-0.258
same,glycan array binding signal (z-score),[7],-0.233
same,glycan array binding signal (z-score),[8],-0.221
same,glycan array binding signal (z-score),[9],-0.316
same,glycan array binding signal (z-score),[10],-0.151
same,glycan array binding signal (z-score),[11],-0.177
same,glycan array binding signal (z-score),[12],-0.29
same,glycan array binding signal (z-score),[13],-0.196
same,glycan array binding signal (z-score),[14],-0.113
same,glycan array binding signal (z-score),[15],1.35
same,glycan array binding signal (z-score),[16],-0.049
same,glycan array binding signal (z-score),[17],-0.173
same,glycan array binding signal (z-score),[18],-0.192
same,glycan array binding signal (z-score),[19],0.279
same,glycan array binding signal (z-score),Fuc(a1-2)Gal(b1-4)Glc,-0.068
same,glycan array binding signal (z-score),Fuc(a1-2)Gal(b1-4)Glc6S,-0.148
same,glycan array binding signal (z-score),Fuc(a1-2)Gal(b1-4)GlcNAc,-0.237
same,glycan array binding signal (z-score),[20],-0.399
same,glycan array binding signal (z-score),[21],-0.273
same,glycan array binding signal (z-score),[22],-0.211
same,glycan array binding signal (z-score),[23],-0.213
same,glycan array binding signal (z-score),[24],-0.297
same,glycan array binding signal (z-score),[25],-0.182
same,glycan array binding signal (z-score),[26],-0.22
same,glycan array binding signal (z-score),[27],3.91
same,glycan array binding signal (z-score),[28],-0.222
same,glycan array binding signal (z-score),[29],-0.304
same,glycan array binding signal (z-score),[30],-0.172
same,glycan array binding signal (z-score),[31],-0.218
same,glycan array binding signal (z-score),[32],-0.31
same,glycan array binding signal (z-score),[33],0.17
same,glycan array binding signal (z-score),[34],1.02
same,glycan array binding signal (z-score),[35],-0.273
same,glycan array binding signal (z-score),[36],-0.296
same,glycan array binding signal (z-score),[37],3.09
same,glycan array binding signal (z-score),[38],-0.311
same,glycan array binding signal (z-score),[39],-0.227
